# According to PubChem BioAssay AID2147 (National Center for Advancing Translational Sciences (NCATS), 2009):
# In all, about 230,000 compounds went through this assay and about 3,600 (1.6%) were called active. The inconclusive results got no clear call from the source; some entries with a clear call stand among them for comparison. Calls follow the shape of the dose curve; as a rule, active = well fitted inhibition curve with a large enough effect (not every such curve was filed as active); inconclusive = small, poorly fitted or top-dose-only effect, or another doubt; inactive = no such curve, though single readings can be large or run the other way. A potency beside an inconclusive call is a rough fit, not a confirmed value.
# Target: Lysine-specific demethylase 4E (Homo sapiens) (UniProt B2RXH2)
# Test: qHTS Assay for Inhibitors of Human Jumonji Domain Containing 2E (JMJD2E)
# Conditions: JMJD2E catalytic domain, FDH-coupled NADH fluorescence (FDH is formaldehyde dehydrogenase); series mostly up to 57.1 µM; activity change, negative = inhibition: at the top concentration
# Also: nearly all actives have a fitted effect of over 50% in size.
# 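For activity change, negative = inhibition in this document: 0% = wells with enzyme and -100% = buffer wells without enzyme.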
# Potency is read from the fitted curve at half-maximal effect; tags tell the direction and shape of the fitted curve.
# Sequence of UniProt B2RXH2 (B2RXH2 whole entry, looked up, the tested form may be a part): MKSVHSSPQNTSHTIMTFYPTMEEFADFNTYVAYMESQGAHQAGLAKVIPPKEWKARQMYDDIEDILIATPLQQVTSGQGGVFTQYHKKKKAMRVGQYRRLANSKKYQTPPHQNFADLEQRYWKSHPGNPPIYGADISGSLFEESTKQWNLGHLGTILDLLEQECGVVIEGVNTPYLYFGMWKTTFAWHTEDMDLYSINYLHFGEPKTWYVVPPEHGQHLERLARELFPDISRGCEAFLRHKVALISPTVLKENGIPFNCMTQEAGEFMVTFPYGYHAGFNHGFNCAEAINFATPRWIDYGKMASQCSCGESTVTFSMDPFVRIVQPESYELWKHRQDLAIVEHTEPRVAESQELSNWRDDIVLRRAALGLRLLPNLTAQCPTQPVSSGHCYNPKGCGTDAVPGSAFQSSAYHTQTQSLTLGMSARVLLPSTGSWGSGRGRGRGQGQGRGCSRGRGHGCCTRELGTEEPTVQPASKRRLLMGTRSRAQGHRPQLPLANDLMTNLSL
Compound,Potency,"activity change, negative = inhibition"
CCOC(=O)c1cc(-c2ccc(/C=N\n3cnnc3)o2)ccc1Cl,"inconclusive: 35.5 µM [inhibitor, single point]",
C/C(=N\Nc1nc2c(s1)CCCC2)c1ccccc1,"inconclusive: 28.2 µM [inhibitor, single point]",
CCOc1cc2c(C#N)c(N3CCCCC3)nc(N)c2c(N)n1,"inconclusive: 25.1 µM [inhibitor, partial curve]",
COc1ccc(/C=N/NC(=O)c2cccc([N+](=O)[O-])c2)cc1OS(=O)(=O)c1ccccc1,,inactive: -4.89%
Cc1ccc(C(=O)Nc2ccc(-c3csc(C)n3)cc2)cc1,"inconclusive: 31.6 µM [inhibitor, single point]",
CN1/C(=C\C(=O)COC(=O)c2ccccc2O)C(C)(C)c2ccccc21,"inconclusive: 39.8 µM [inhibitor, single point]",
Cc1ccccc1-c1c(C)oc2cc(O)ccc2c1=O,"inconclusive: 28.2 µM [inhibitor, partial curve]",
Cc1ccc(/C=C/C(=O)N2CCN(S(=O)(=O)c3cccs3)CC2)o1,,inactive: -17.8%
COc1ccc(N=C2SC(C(=O)N3CCN(c4ccc([N+](=O)[O-])cc4)CC3)CC(=O)N2C)cc1 (stereo not given),,inactive: -13.9%
CC(=O)c1nc2ccccc2n1S(=O)(=O)c1ccc(Cl)cc1,"inconclusive: 25.1 µM [inhibitor, partial curve]",
O=C(NN=C1CCCC1)c1[nH]c2ccc(Br)cc2c1-c1ccccc1,"inconclusive: 39.8 µM [inhibitor, single point]",
O=C(N/N=C/c1[nH]c2ccccc2c1Cl)c1cccc(Br)c1,"inconclusive: 7.08 µM [inhibitor, single point]",
COc1ccc2oc3ccc(OC)cc3c(=O)c2c1,"inconclusive: 8.91 µM [inhibitor, partial curve]",
O=C(CN1C(=O)c2ccccc2C1=O)Nc1cccc(S(=O)(=O)Nc2ccccc2Cl)c1,,inactive: -4.56%
CC(=O)Nc1ccc(-c2cn3cccnc3n2)cc1,"inconclusive: 31.6 µM [inhibitor, partial curve]",
COc1cc(C2Nc3ccccc3C(=O)N2c2ccccc2OC)ccc1O (stereo not given),"inconclusive: 31.6 µM [inhibitor, partial curve]",
Cc1c(CCC(=O)O)c(=O)oc2cc3occ(-c4ccccc4)c3cc12,"inconclusive: 28.2 µM [inhibitor, single point]",
Cc1cc(Nc2nnnn2-c2ccccc2)n(-c2ccc(Cl)cc2)n1,,inactive: -4.11%
CN(CCc1ccccn1)C(=S)NC(=O)c1ccco1,,inactive: -2.07%
CC(NC(=O)COc1ccc(Br)cc1)C(=O)O (stereo not given),"inconclusive: 22.4 µM [inhibitor, single point]",
FC(F)(F)c1nc2ccccc2n2c(-c3c(Cl)cccc3Cl)nnc12,"inconclusive: 39.8 µM [inhibitor, single point]",
Nc1c(NCCc2ccccc2)c2ccccc2oc1=O,"inconclusive: 31.6 µM [inhibitor, single point]",
Cn1c(-c2ccc(N)cc2)nc2ccccc21,"inconclusive: 7.94 µM [inhibitor, full curve]",
CC(C)CCn1cnc2c([nH]c3cccc(Cl)c32)c1=O,"inconclusive: 28.2 µM [inhibitor, single point]",
COc1ccccc1-c1nc(C#N)c(N2CCN(c3ccccc3)CC2)o1,"inconclusive: 35.5 µM [inhibitor, single point]",

Compound,Potency,"activity change, negative = inhibition"
Cc1ccc(NC(=O)CC2=NC(=O)C(CC(=O)Nc3ccccc3C)S2)cc1 (stereo not given),"inconclusive: 39.8 µM [inhibitor, single point]",
O=C(Nc1ccc(F)cc1)C(c1ccccc1)N1CCN(C(=O)c2ccco2)CC1 (stereo not given),,inactive: 2.31%
COc1cc(/C=N/NC(=O)c2sc(N)c(C#N)c2C)cc(Br)c1O,"inconclusive: 35.5 µM [inhibitor, single point]",
CCN(CC)S(=O)(=O)c1ccc(O)c(NC(=O)CN2CCc3ccccc3C2)c1,,inactive: 0.458%
CNc1nc(-c2ccccc2)cc(C)c1S(C)(=O)=O,"inconclusive: 28.2 µM [inhibitor, partial curve]",
CCn1cc(C(=O)NC(=S)Nc2cccc(O)c2)cn1,,inactive: 0.563%
CCc1nnc(NC(=O)c2ccc(S(=O)(=O)NC3CCCCC3)cc2)s1,"inconclusive: 35.5 µM [inhibitor, single point]",
CCCN=Cc1ccc(O)cc1,,inactive: 7.16%
COc1ccc2cc(C(c3nnnn3C3CCCC3)N3CCOCC3)c3nnnn3c2c1 (stereo not given),,inactive: -7.34%
CN(O)/C=C/C(=O)c1ccc(Br)cc1,,inactive: 0.0826%
COc1ccc(Oc2cnn(-c3ccccc3)c(=O)c2Br)cc1,,inactive: 4.31%
CCOc1ccc(-n2cccc2C=O)cc1,,inactive: -6.03%
CCOC(=O)C(=O)NNc1ccc(F)cc1,"inconclusive: 35.5 µM [inhibitor, single point]",
O=C(NCc1cccnc1)NC1CC(=O)N(c2ccc3c(c2)OCCO3)C1 (stereo not given),,inactive: 0.529%
CCOC(=O)C1C(=O)N(O)CC1c1cccc(Oc2ccccc2)c1 (stereo not given),,inactive: -3.91%
Cc1ccc(S(=O)(=O)[N-]c2nc3ccccc3nc2-n2cc[n+](CCC(C)C)c2)cc1,"inconclusive: 28.2 µM [inhibitor, partial curve]",
CCCN1CCN(CCCNC(=O)CCNC(=O)Cn2ccc3ccccc3c2=O)CC1,"inconclusive: 20 µM [inhibitor, single point]",
O=C(CCS(=O)(=O)c1cccc2nonc12)NCc1ccc(Cl)cc1,,inactive: -4.43%
CC(=O)C1=C(C)OC(N)=C(C#N)C1c1cccnc1 (stereo not given),"inconclusive: 39.8 µM [inhibitor, single point]",
CC(=O)c1ccc(N2CCN(c3ccc(S(=O)(=O)NCCCN(C)C)cc3[N+](=O)[O-])CC2)cc1,,inactive: -4.41%
COc1cc(CNCc2ccccc2)cc(Cl)c1OC,,inactive: -4.5%
O=C(Oc1ccccc1C(=O)Oc1ccccc1)c1ccco1,,inactive: 4.16%
CC(C)OC(=O)c1cc(=O)[nH]c2ccccc12,"inconclusive: 20 µM [inhibitor, partial curve]",
Cc1ccc(NC(=O)CSc2ncc3ccccn23)cc1,"inconclusive: 39.8 µM [inhibitor, single point]",
COc1ccccc1N1CCN(S(=O)(=O)c2c(C)[nH]c(=O)[nH]c2=O)CC1,,inactive: -0.493%

Compound,Potency,"activity change, negative = inhibition"
CC(C)(C)NC(=O)CSc1nnc(NC(=O)CCn2cnc3ccccc3c2=O)s1,,inactive: 0.748%
Cc1ccc(-n2nc3cc(Cl)c(NC(=O)c4ccco4)cc3n2)cc1,"inconclusive: 7.08 µM [inhibitor, single point]",
CC1CCCCN1CC(=O)c1c(N)n(Cc2ccccc2)c(=O)n(C)c1=O (stereo not given),,inactive: -0.484%
CC(C)CCn1c(N)c(S(=O)(=O)c2cccs2)c2nc3ccccc3nc21,"inconclusive: 31.6 µM [inhibitor, partial curve]",
COC(=O)C1=C(C)Nc2nnnn2C1c1ccc(Cl)cc1Cl (stereo not given),,inactive: -3.18%
COc1cccc(/C=C/C(=O)NCc2ccc(S(N)(=O)=O)cc2)c1,"inconclusive: 28.2 µM [inhibitor, partial curve]",
Oc1c(Cl)cc(Cl)cc1/C=N/NC(=S)NC1CC2C=CC1C2 (stereo not given),"inconclusive: 20 µM [inhibitor, partial curve]",
CCCc1sc(N/N=C/c2ccccn2)nc1-c1ccc(Br)cc1,"inconclusive: 5.01 µM [inhibitor, single point]",
CNC1CC(N)[C@H](O)[C@@H](O[C@@H]2OC(CO)C3OC4(OC(C(N)CO)C(O)C(O)C4O)O[C@@H]3[C@H]2O)C1O (stereo not given in full),,inactive: 6.72%
Cc1ccnc(N2CCC(C(=O)Nc3cccc(C(F)(F)F)c3)CC2)n1,"inconclusive: 25.1 µM [inhibitor, partial curve]",
COCCN(CCOC)S(=O)(=O)c1ccc(C(=O)Nc2nnc(COC)o2)cc1,"inconclusive: 39.8 µM [inhibitor, single point]",
O=C(NCc1csc(-c2cccs2)n1)c1cccc(Cl)c1,"inconclusive: 22.4 µM [inhibitor, partial curve]",
COCCNc1c2c(c(C#N)c3nc4ccccc4n13)CCCC2,"inconclusive: 35.5 µM [inhibitor, single point]",
CCCN(CCO)Cc1cccc(Br)c1,"inconclusive: 31.6 µM [inhibitor, single point]",
O=C1c2cccc3c(N4CCCCC4)ccc(c23)C(=O)N1c1ccccn1,"inconclusive: 39.8 µM [inhibitor, single point]",
Cc1ccc(C)c2c1cc(C)c1nnc(SCC(=O)Nc3cccc(C(=O)O)c3)n12,"inconclusive: 35.5 µM [inhibitor, single point]",
Cc1cc(C)n2nc(SCc3cc(=O)oc4ccc5ccccc5c34)nc2n1,"inconclusive: 11.2 µM [inhibitor, partial curve]",
COc1ccc(N2CCc3c(C)nc4c(OC)cccc4c32)cc1,"inconclusive: 35.5 µM [inhibitor, single point]",
CC1CCCCN1C(=O)COC(=O)c1n[nH]c2ccccc12 (stereo not given),"inconclusive: 28.2 µM [inhibitor, single point]",
O=C(C(c1ccccc1)c1ccccc1)N1CCN(Cc2ccc(Br)cc2)CC1,,inactive: 2.17%
COc1ccccc1-c1nnc(SCC(=O)NCc2c(C)c(Cl)cc(C(C)C)c2O)o1,,inactive: 2.67%
COc1cccc(N2CCN(C(=O)c3ccc(=O)oc3)CC2C)c1 (stereo not given),"inconclusive: 7.94 µM [inhibitor, full curve]",
Cc1cccn2c(N)c(-c3ccccc3)nc12,"inconclusive: 28.2 µM [inhibitor, partial curve]",
CCCOc1ccc2[nH]cc(C(=O)O)c(=O)c2c1,,inactive: -3.21%
c1ccc(-c2cc(N3CCCCC3)c3ccccc3n2)cc1,"inconclusive: 31.6 µM [inhibitor, single point]",
